Test results: paper PMC4336329 (PLoS ONE, 2015)
The campaign covered roughly 310,000 compounds. About 2,200 (0.71%) showed an effect of 50% or more. The effect is printed as a negative number. The list shows a part of the results.

The compounds below were run against human ether-à-go-go-related gene (hERG) potassium channel (human, UniProt Q12809) (assay: primary screen, population patch clamp on CHO cells stably expressing hERG).
Sequence of human ether-à-go-go-related gene (hERG) potassium channel (Q12809 whole entry, looked up): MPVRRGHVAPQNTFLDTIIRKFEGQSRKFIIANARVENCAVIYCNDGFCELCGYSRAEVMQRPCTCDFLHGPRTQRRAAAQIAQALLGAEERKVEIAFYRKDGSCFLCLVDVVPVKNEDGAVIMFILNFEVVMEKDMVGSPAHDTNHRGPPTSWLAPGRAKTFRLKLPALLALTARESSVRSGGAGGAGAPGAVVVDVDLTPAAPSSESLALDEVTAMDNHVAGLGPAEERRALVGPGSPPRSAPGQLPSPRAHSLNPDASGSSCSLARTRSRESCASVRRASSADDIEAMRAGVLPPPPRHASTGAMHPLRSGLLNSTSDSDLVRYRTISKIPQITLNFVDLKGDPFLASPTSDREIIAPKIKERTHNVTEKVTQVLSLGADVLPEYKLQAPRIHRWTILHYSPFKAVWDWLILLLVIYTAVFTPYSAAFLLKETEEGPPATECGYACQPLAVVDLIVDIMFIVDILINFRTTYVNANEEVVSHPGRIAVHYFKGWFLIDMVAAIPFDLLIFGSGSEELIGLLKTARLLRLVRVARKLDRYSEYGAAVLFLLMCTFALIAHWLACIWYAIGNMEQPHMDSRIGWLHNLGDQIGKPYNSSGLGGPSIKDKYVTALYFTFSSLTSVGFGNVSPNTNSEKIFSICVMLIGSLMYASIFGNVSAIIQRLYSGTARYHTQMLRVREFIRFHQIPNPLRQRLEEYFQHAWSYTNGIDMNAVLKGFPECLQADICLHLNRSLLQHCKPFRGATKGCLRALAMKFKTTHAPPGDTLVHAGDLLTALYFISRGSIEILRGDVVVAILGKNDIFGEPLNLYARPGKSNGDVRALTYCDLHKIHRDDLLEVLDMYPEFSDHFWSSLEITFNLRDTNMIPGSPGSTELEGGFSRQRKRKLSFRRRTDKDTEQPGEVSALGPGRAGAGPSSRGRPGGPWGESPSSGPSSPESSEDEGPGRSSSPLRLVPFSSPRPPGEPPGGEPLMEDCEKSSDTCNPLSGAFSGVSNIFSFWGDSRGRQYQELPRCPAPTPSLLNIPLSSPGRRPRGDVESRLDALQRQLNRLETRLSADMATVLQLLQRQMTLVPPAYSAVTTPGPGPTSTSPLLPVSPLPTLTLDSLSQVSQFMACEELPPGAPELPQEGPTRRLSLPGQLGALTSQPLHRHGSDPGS

| SMILES | hERG current change (%, negative = inhibition) at 1uM |
| --- | --- |
| COC(=O)c1ccc(NC(=O)c2cc[n+]([O-])cc2)cc1 | 10.9% |
| Cc1cc(C(=O)OCC(=O)NCc2ccc3c(c2)OCO3)c2ccccc2n1 | 5.2% |
| CCOC(=O)c1ccc(N2C(=O)C3ON(c4ccccc4)C(c4ccco4)C3C2=O)cc1 (centres unmarked) | 16.4% |
| CC(=O)NCCC(=O)Nc1nc(C)c(Cc2ccc3c(c2)OCO3)s1 | 1.67% |
| COc1ccc(N(C(=O)c2cccnc2)S(=O)(=O)c2ccc3c(c2)n(C)c(=O)n3C)cc1 | 2.78% |
| CC1(C)CC(=O)CC(=Nc2ccc(C(=O)O)cc2)C1 | 12.1% |
| COc1ccccc1CNC(=O)CCNC(=O)C1CCN(S(=O)(=O)c2ccccc2)CC1 | 2.41% |
| COc1ccc(Cl)cc1NC(=O)c1ocnc1C | 0.857% |
| O=C(NCC(=O)N(c1cccc(F)c1)C(C(=O)NC1CCCC1)c1ccncc1)c1cccs1 (centres unmarked) | 13.4% |
| COc1ccc(-c2nn(CCC#N)cc2C(=O)Nc2ccc(C(C)=O)cc2)cc1[N+](=O)[O-] | 11.9% |
| O=Cc1ccccc1Oc1nc(N2CCOCC2)nc(N2CCOCC2)n1 | 9.76% |
| CN=C(Nc1ccc(C)c(C)c1)SC1CC(=O)N(c2ccc(OC)cc2)C1=O (centres unmarked) | 11.2% |
| COc1ccc(Cl)cc1NC(=O)C(C)NC(c1ccccc1)c1ccccc1 (centres unmarked) | 2.3% |
| N#Cc1ncc(C(F)(F)F)cc1Sc1ccccc1N | 11.7% |
| Cc1ccc(C)c(NC(=O)CCc2ccc(S(=O)(=O)NC3CCCCC3)cc2)c1 | 8.33% |
| CC(C)(C)c1ccc(/C=C/C(=O)Nc2cccnc2)cc1 | 8.63% |
| Cc1oc2ccc(O)cc2c1C(=O)c1ccccc1 | 9.82% |
| COc1ccc(C2=NOC(C(=O)NCc3ccc(F)cc3)C2)cc1OC (centres unmarked) | 3.29% |
| Cc1ccn2cc(-c3cccc(NC(=O)C(C)C)c3)nc2c1 | -1.33% |
| Cc1ccccc1NC(=O)NCCCN1CCCC1 | 20% |
| O=C(N/N=C/c1cc2c(cc1Cl)OCO2)c1ccc2c(c1)OCCO2 | 12.6% |
| Cc1ccc(N2CC(C(=O)OCc3nc(N)nc(Nc4ccccc4C)n3)CC2=O)cc1 (centres unmarked) | 8.04% |

| SMILES | hERG current change (%, negative = inhibition) at 1uM |
| --- | --- |
| Oc1cc2c(cc1CN1CCN(c3ccc(F)cc3)CC1)OCO2 | 5.92% |
| O=C(NCc1ccccn1)c1cccc(S(=O)(=O)Nc2ccccc2Cl)c1 | 17% |
| Cc1c(C(=O)N/N=C/c2cccnc2)nnn1-c1nonc1N | 9.92% |
| Cc1nc(N)nc(N/N=C/c2ccccc2)n1 | 11.9% |
| O=C(O)c1cc(C(=O)O)c(-c2ccccc2)c(C(=O)O)c1 | -2.98% |
| NNC(=O)c1ccc(Cn2cc(Br)c(N)n2)cc1 | 18% |
| Cc1onc(-c2ccc(Cl)cc2Cl)c1-c1csc(N/N=C/c2ccccc2Cl)n1 | 8.92% |
| CC1=NN(c2ccc(C(=O)O)c(N)c2)C(=O)C1 | 10.8% |
| CC(C)Nc1nc(NC(C)C)nc(N(C)n2cnnc2)n1 | 12.3% |
| CCOCCCNC(=S)N(CCN(C)C)Cc1cc2cc3c(cc2[nH]c1=O)OCCO3 | 17.8% |
| CCOC(=O)c1sc(NC(=O)CNCc2cccnc2)c(C(=O)OCC)c1C | -3.36% |
| Cc1cc(NC(=O)CSc2nc(-c3ccccc3)c(C#N)c(=O)[nH]2)no1 | -7.8% |
| COc1ccc(-c2nn(-c3ccccc3)cc2C(=O)NC2CC2)cc1 | 1.61% |
| O=C(COc1ccc(F)cc1)Nc1nnc(S(=O)(=O)N2CCCC2)s1 | 9.65% |
| O=C(CCc1ccc(S(=O)(=O)N2CCOCC2)cc1)N/N=C/c1ccc(O)c(O)c1O | 14.9% |
| O=C(Cn1cnc2ccccc2c1=O)Nc1ccc2c(c1)CCC2 | -1.15% |
| N=c1oc2ccc(Br)cc2cc1C(=O)NCc1ccc(F)cc1 | 8.7% |
| COc1cccc(N2CCN(C(=O)Nc3ccccc3Cl)CC2)c1 | 4.75% |
| Cc1ccc(Cn2c(C3CCCN3c3nc(-c4ccc(F)cc4)cs3)nc3cc(C(F)(F)F)ccc32)cc1 (centres unmarked) | 11.3% |
| O=C(CSc1nnc(NC(=O)c2ccco2)s1)NC1CCCCC1 | 6.89% |
| COc1ccccc1CCC(=O)Nc1ccc2c(c1)CN(Cc1ccc(C)o1)CC2 | 11.7% |
| CCCCC(CC)CNC(=O)C(=O)C1C(=O)Nc2ccccc21 (centres unmarked) | 7.79% |
